Each structure is given as a SMILES string.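 1) Cells in 96-well plates. 2) Compound, 48 h, 5 concentrations. 3) Linear interpolation between surrounding doses. 4) Unreached endpoint = highest concentration. GI50: concentration for 50% inhibition of growth. TGI: total growth inhibition.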

Experimental findings from PubChem BioAssay (NCI) are described below.

In the test the test system is NCI-H322M lung. The experiment in a line: inhibition of tumour cell growth, NCI panel, 48 h.
For `O=C(N/N=C/c1ccc(Br)s1)c1[nH]c2ccc(Br)cc2c1-c1ccccc1`, the GI50 is 1.71 µM and the TGI was greater than 100 µM.

With `N/C(=N\c1nc2c(Br)cccc2s1)C(Br)Br`, the GI50 is 12.8 µM and the TGI is 34 µM.

As for `Nc1ccc(-c2nnc(SCc3ccc(O)c4ncccc34)n2-c2ccccc2)cc1`, the GI50 is 0.116 µM and the TGI was greater than 100 µM.

Regarding `COc1cc2c3c(n(CCCNCC4CC4)c(=O)c2cc1OC)-c1cc2c(cc1C3=O)OCO2`, the GI50 was 4.1 µM and the TGI was determined as 18.3 µM.
